Results published in the antibiotic and cytotoxicity screens of Wong et al. (2023).
The other results are listed elsewhere or left out.

Key:
HSkMC = human skeletal muscle cells; experiment: cytotoxicity call (relative viability < 0.9); conditions: 10 µM
HepG2 = experiment: cytotoxicity call (relative viability < 0.9); conditions: 10 µM
S. aureus RN4220 = experiment: growth inhibition call (relative growth <= 0.2); conditions: 50 µM

COc1ccccc1C#Cc1cnc2c(c1)C(=O)N([C@H](C)CO)C[C@H](C)[C@@H](CN(C)C(=O)CC1CC1)O2
inactive: cytotoxicity call (HSkMC) | cytotoxicity call (HepG2) | growth inhibition call (S. aureus RN4220)

COc1ccc(NC(=O)Nc2cccc3c2O[C@@H](CN(C)C(=O)Nc2ccc(C(F)(F)F)cc2)[C@H](C)CN([C@H](C)CO)C3=O)cc1
inactive: cytotoxicity call (HSkMC) | cytotoxicity call (HepG2) | growth inhibition call (S. aureus RN4220)

CNC[C@H]1Oc2cc(C#CCN(C)C)ccc2S(=O)(=O)N([C@H](C)CO)C[C@@H]1C
inactive: cytotoxicity call (HSkMC) | cytotoxicity call (HepG2) | growth inhibition call (S. aureus RN4220)
